According to the antibiotic and cytotoxicity screens of Wong et al. (2023):
Some of the results follow.

What follows are compounds tested on S. aureus RN4220 (assay: growth inhibition call (relative growth <= 0.2)). Conditions: 50 µM.

Growth inhibition call, inactive:
CCC[C@@H](O)C#Cc1cnc2c(c1)C(=O)N([C@H](C)CO)C[C@H](C)[C@H](CN(C)S(=O)(=O)c1cn(C)cn1)O2
C[C@H]1CN([C@@H](C)CO)S(=O)(=O)c2ccc(/C=C/c3ccccc3)cc2O[C@H]1CN(C)C(=O)CN1CCOCC1
Cc1ccc(S(=O)(=O)Nc2ccc3c(c2)CC(=O)N([C@@H](C)CO)C[C@@H](C)[C@H](CN(C)S(=O)(=O)c2cccs2)O3)cc1
C[C@@H]1CCCCO[C@H](CN(C)C)[C@H](C)CN([C@@H](C)CO)C(=O)c2cc(NS(=O)(=O)c3cn(C)cn3)ccc2O1
CN1C(=O)c2cc(NC(=O)C3CCC3)ccc2OC[C@@H]2O[C@H](CC(=O)NCCc3ccncc3)CC[C@@H]21
CO[C@H]1CN(C)C(=O)c2cc(NC(=O)C3CCOCC3)ccc2OC[C@H](C)N(Cc2cccnc2)C[C@@H]1C
C[C@@H]1CCCCO[C@H](CN(C)S(C)(=O)=O)[C@@H](C)CN([C@H](C)CO)C(=O)c2cc(NC(=O)Nc3cccc4ccccc34)ccc2O1
Cc1ccc(-c2ccc3c(c2)O[C@H](CN(C)C(=O)NC(C)C)[C@H](C)CN([C@H](C)CO)S3(=O)=O)cc1
Cc1ccc(S[C@]2(C(=O)NCC(C)C)CC(=O)N(Cc3ccccc3Cl)[C@@H]2c2ccc(CO)cc2I)cc1
CC=Cc1ccc2n(c1=O)C[C@@H]1[C@@H](CO)[C@H](C(=O)NCCc3cn(C)cn3)N(C(=O)C3CC3)[C@H]21
CC1(C(=O)O)CCC2(C)CCC3(C)C(=CC(=O)C4C5(C)CCC(O)C(C)(C)C5CCC43C)C2C1 (stereo unspecified)
